# The list shows a part of the results.
# B1: HA-11100 (Pseudomonas aeruginosa), Q02G51_PSEAB (protein)
# chain: QFNPNEIKISQQGKTTLIDQSTQRAIINWKGFDVSADEAVRFNQPGVTSSTLNRVTAGQESVIAGRISAPGQVIIYNSNGVVFSGSAKVDVGSLITTTANISDEHFRQGKLIFDQPGNPDARIVNDGSISVAEKGLAAFVAPSVANNGVINARLGTVAMAAGNAATIDLYG
# Key:
# Test in all cases: glycan array binding signal (z-score within array); higher = stronger binding
# Conditions in all cases: glycan notation: IUPAC condensed, linker removed
# [1] = target: Gal(b1-3)GlcNAc(b1-2)Man(a1-3)[Gal(b1-3)GlcNAc(b1-2)Man(a1-6)]Man(b1-4)GlcNAc(b1-4)GlcNAc
# Method in brief: (§1)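 Glycan array binding is given as a within-array Z-score, which can be read as non-binding when negative. The arrays, 3228 of them, came from the Consortium for Functional Glycomics database and were retained only where the protein sequence was available. Z-scores were averaged across arrays of the same protein sequence at different concentrations or buffers and across linkers.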
# [2] = target: Gal(b1-3)GlcNAc(b1-2)Man(a1-3)[Gal(b1-3)GlcNAc(b1-2)Man(a1-6)]Man(b1-4)GlcNAc(b1-4)[Fuc(a1-6)]GlcNAc
# Method in brief: as §1
# [3] = target: Gal(b1-3)GlcNAc(b1-2)Man(a1-3)[GlcNAc(b1-4)][Gal(b1-3)GlcNAc(b1-2)Man(a1-6)]Man(b1-4)GlcNAc(b1-4)GlcNAc
# Method in brief: as §1
# [4] = target: Gal(b1-3)GlcNAc(b1-2)[Gal(b1-3)GlcNAc(b1-6)]Man(a1-6)[Gal(b1-3)GlcNAc(b1-2)Man(a1-3)]Man(b1-4)GlcNAc(b1-4)GlcNAc
# Method in brief: as §1
# [5] = target: Gal(b1-3)GlcNAc(b1-3)Gal(b1-3)GlcNAc
# Method in brief: as §1
# [6] = target: Gal(b1-3)GlcNAc(b1-3)Gal(b1-4)Glc
# Method in brief: as §1
# [7] = target: Gal(b1-3)GlcNAc(b1-3)Gal(b1-4)GlcNAc
# Method in brief: as §1
# [8] = target: Gal(b1-3)GlcNAc(b1-3)Gal(b1-4)GlcNAc(b1-2)Man(a1-3)[Gal(b1-3)GlcNAc(b1-3)Gal(b1-4)GlcNAc(b1-2)Man(a1-6)]Man(b1-4)GlcNAc(b1-4)GlcNAc
# Method in brief: as §1
# [9] = target: Gal(b1-3)GlcNAc(b1-3)Gal(b1-4)GlcNAc(b1-2)[Gal(b1-3)GlcNAc(b1-3)Gal(b1-4)GlcNAc(b1-6)]Man(a1-6)[Gal(b1-3)GlcNAc(b1-3)Gal(b1-4)GlcNAc(b1-2)Man(a1-3)]Man(b1-4)GlcNAc(b1-4)[Fuc(a1-6)]GlcNAc
# Method in brief: as §1
# [10] = target: Gal(b1-3)GlcNAc(b1-3)Gal(b1-4)GlcNAc(b1-3)Gal(b1-4)GlcNAc(b1-2)[Gal(b1-3)GlcNAc(b1-3)Gal(b1-4)GlcNAc(b1-3)Gal(b1-4)GlcNAc(b1-6)]Man(a1-6)[Gal(b1-3)GlcNAc(b1-3)Gal(b1-4)GlcNAc(b1-3)Gal(b1-4)GlcNAc(b1-2)Man(a1-3)]Man(b1-4)GlcNAc(b1-4)[Fuc(a1-6)]GlcNAc
# Method in brief: as §1
# [11] = target: Gal(b1-3)GlcNAc(b1-3)Gal(b1-4)GlcNAc(b1-6)[Gal(b1-3)GlcNAc(b1-3)]Gal(b1-4)Glc
# Method in brief: as §1
# [12] = target: Gal(b1-3)GlcNAc(b1-3)Gal(b1-4)[Fuc(a1-3)]GlcNAc
# Method in brief: as §1
# [13] = target: Gal(b1-3)GlcNAc(b1-3)Gal(b1-4)[Fuc(a1-3)]GlcNAc(b1-6)[Gal(b1-3)GlcNAc(b1-3)]Gal(b1-4)Glc
# Method in brief: as §1
# [14] = target: Gal(b1-3)GlcNAc(b1-3)GalNAc
# Method in brief: as §1
# [15] = target: Gal(b1-3)GlcNAc(b1-6)Gal(b1-4)GlcNAc
# Method in brief: as §1
# [16] = target: Gal(b1-3)GlcNAc(b1-6)GalNAc
# Method in brief: as §1
# [17] = target: Gal(b1-3)GlcNAc(b1-6)[Gal(b1-3)]GalNAc
# Method in brief: as §1
# [18] = target: Gal(b1-3)GlcNAc6S
# Method in brief: as §1
# [19] = target: Gal(b1-3)[Fuc(a1-4)]GlcNAc
# Method in brief: as §1
# [20] = target: Gal(b1-3)[Fuc(a1-4)]GlcNAc(b1-2)Man
# Method in brief: as §1
# [21] = target: Gal(b1-3)[Fuc(a1-4)]GlcNAc(b1-2)Man(a1-3)[Gal(b1-3)[Fuc(a1-4)]GlcNAc(b1-2)Man(a1-6)]Man(b1-4)GlcNAc(b1-4)[Fuc(a1-6)]GlcNAc
# Method in brief: as §1
# [22] = target: Gal(b1-3)[Fuc(a1-4)]GlcNAc(b1-3)Gal(b1-3)[Fuc(a1-4)]GlcNAc
# Method in brief: as §1
# [23] = target: Gal(b1-3)[Fuc(a1-4)]GlcNAc(b1-3)Gal(b1-4)[Fuc(a1-3)]GlcNAc
# Method in brief: as §1
# [24] = target: Gal(b1-3)[Fuc(a1-4)]GlcNAc(b1-6)GalNAc
# Method in brief: as §1
# [25] = target: Gal(b1-3)[GlcNAc(b1-6)]GalNAc
# Method in brief: as §1
# [26] = target: Gal(b1-3)[Neu5Ac(a2-6)]GalNAc
# Method in brief: as §1
# [27] = target: Gal(b1-3)[Neu5Ac(a2-6)]GlcNAc(b1-4)Gal(b1-4)Glc
# Method in brief: as §1
# [28] = target: Gal(b1-3)[Neu5Ac(b2-6)]GalNAc
# Method in brief: as §1
# [29] = target: Gal(b1-4)Gal
# Method in brief: as §1
# [30] = target: Gal(b1-4)GalNAc(a1-3)[Fuc(a1-2)]Gal(b1-4)GlcNAc
# Method in brief: as §1
# [31] = target: Gal(b1-4)GalNAc(b1-3)[Fuc(a1-2)]Gal(b1-4)GlcNAc
# Method in brief: as §1
# [32] = target: Gal(b1-4)Glc
# Method in brief: as §1
# [33] = target: Gal(b1-4)Glc6S
# Method in brief: as §1
# [34] = target: Gal(b1-4)GlcNAc
# Method in brief: as §1
# [35] = target: Gal(b1-4)GlcNAc(a1-6)Gal(b1-4)GlcNAc
# Method in brief: as §1
# [36] = target: Gal(b1-4)GlcNAc(b1-2)Man
# Method in brief: as §1
# [37] = target: Gal(b1-4)GlcNAc(b1-2)Man(a1-3)Man(b1-4)GlcNAc(b1-4)GlcNAc
# Method in brief: as §1
# [38] = target: Gal(b1-4)GlcNAc(b1-2)Man(a1-3)[Gal(b1-4)GlcNAc(b1-2)Man(a1-6)]Man(b1-4)GlcNAc(b1-4)GlcNAc
# Method in brief: as §1
# [39] = target: Gal(b1-4)GlcNAc(b1-2)Man(a1-3)[Gal(b1-4)GlcNAc(b1-2)Man(a1-6)]Man(b1-4)GlcNAc(b1-4)[Fuc(a1-6)]GlcNAc
# Method in brief: as §1
# [40] = target: Gal(b1-4)GlcNAc(b1-2)Man(a1-3)[Gal(b1-4)GlcNAc(b1-2)Man(a1-6)][Gal(b1-4)GlcNAc(b1-4)]Man(b1-4)GlcNAc(b1-4)[Fuc(a1-6)]GlcNAc
# Method in brief: as §1
# [41] = target: Gal(b1-4)GlcNAc(b1-2)Man(a1-3)[Gal(b1-4)GlcNAc(b1-2)Man(a1-6)][GlcNAc(b1-4)]Man(b1-4)GlcNAc(b1-4)[Fuc(a1-6)]GlcNAc
# Method in brief: as §1
# [42] = target: Gal(b1-4)GlcNAc(b1-2)Man(a1-3)[GlcNAc(b1-2)Man(a1-6)]Man(b1-4)GlcNAc(b1-4)GlcNAc
# Method in brief: as §1
# [43] = target: Gal(b1-4)GlcNAc(b1-2)Man(a1-3)[GlcNAc(b1-4)][Gal(b1-4)GlcNAc(b1-2)Man(a1-6)]Man(b1-4)GlcNAc(b1-4)GlcNAc
# Method in brief: as §1
# [44] = target: Gal(b1-4)GlcNAc(b1-2)Man(a1-3)[Man(a1-6)]Man(b1-4)GlcNAc(b1-4)GlcNAc
# Method in brief: as §1
# [45] = target: Gal(b1-4)GlcNAc(b1-2)Man(a1-6)Man(b1-4)GlcNAc(b1-4)GlcNAc
# Method in brief: as §1
binder,measurement,setting,value
B1,glycan array binding signal (z-score),[1],2.74
same,glycan array binding signal (z-score),[2],1.03
same,glycan array binding signal (z-score),[3],0.437
same,glycan array binding signal (z-score),[4],0.079
same,glycan array binding signal (z-score),[5],-0.603
same,glycan array binding signal (z-score),[6],-0.305
same,glycan array binding signal (z-score),[7],-0.298
same,glycan array binding signal (z-score),[8],-0.053
same,glycan array binding signal (z-score),[9],0.938
same,glycan array binding signal (z-score),[10],0.491
same,glycan array binding signal (z-score),[11],0.224
same,glycan array binding signal (z-score),[12],0.385
same,glycan array binding signal (z-score),[13],-0.157
same,glycan array binding signal (z-score),[14],0.562
same,glycan array binding signal (z-score),[15],-0.289
same,glycan array binding signal (z-score),[16],-0.285
same,glycan array binding signal (z-score),[17],-0.506
same,glycan array binding signal (z-score),[18],-0.63
same,glycan array binding signal (z-score),[19],-0.114
same,glycan array binding signal (z-score),[20],0.084
same,glycan array binding signal (z-score),[21],1.4
same,glycan array binding signal (z-score),[22],0.352
same,glycan array binding signal (z-score),[23],-0.161
same,glycan array binding signal (z-score),[24],0.346
same,glycan array binding signal (z-score),[25],-0.525
same,glycan array binding signal (z-score),[26],-0.444
same,glycan array binding signal (z-score),[27],0.215
same,glycan array binding signal (z-score),[28],-0.442
same,glycan array binding signal (z-score),[29],0.769
same,glycan array binding signal (z-score),[30],0.117
same,glycan array binding signal (z-score),[31],-0.721
same,glycan array binding signal (z-score),[32],0.119
same,glycan array binding signal (z-score),[33],-0.493
same,glycan array binding signal (z-score),[34],-0.135
same,glycan array binding signal (z-score),[35],-0.29
same,glycan array binding signal (z-score),[36],-0.321
same,glycan array binding signal (z-score),[37],-0.53
same,glycan array binding signal (z-score),[38],-0.512
same,glycan array binding signal (z-score),[39],-0.259
same,glycan array binding signal (z-score),[40],-0.299
same,glycan array binding signal (z-score),[41],-0.652
same,glycan array binding signal (z-score),[42],0.056
same,glycan array binding signal (z-score),[43],-0.475
same,glycan array binding signal (z-score),[44],-0.184
same,glycan array binding signal (z-score),[45],-0.113

# — the supplement of paper PMC8728848
